{"source": "paper PMC4336329", "about": "(PLoS ONE, 2015)", "note": "Out of some 310,000 compounds screened, about 2,200 (0.71%) showed an effect of 50% or more. Effects have a minus sign here. The list shows a part of the results.", "data": [{"molecular_target": "human ether-à-go-go-related gene (hERG) potassium channel (human, UniProt Q12809)", "sequence (Q12809 whole entry, looked up)": "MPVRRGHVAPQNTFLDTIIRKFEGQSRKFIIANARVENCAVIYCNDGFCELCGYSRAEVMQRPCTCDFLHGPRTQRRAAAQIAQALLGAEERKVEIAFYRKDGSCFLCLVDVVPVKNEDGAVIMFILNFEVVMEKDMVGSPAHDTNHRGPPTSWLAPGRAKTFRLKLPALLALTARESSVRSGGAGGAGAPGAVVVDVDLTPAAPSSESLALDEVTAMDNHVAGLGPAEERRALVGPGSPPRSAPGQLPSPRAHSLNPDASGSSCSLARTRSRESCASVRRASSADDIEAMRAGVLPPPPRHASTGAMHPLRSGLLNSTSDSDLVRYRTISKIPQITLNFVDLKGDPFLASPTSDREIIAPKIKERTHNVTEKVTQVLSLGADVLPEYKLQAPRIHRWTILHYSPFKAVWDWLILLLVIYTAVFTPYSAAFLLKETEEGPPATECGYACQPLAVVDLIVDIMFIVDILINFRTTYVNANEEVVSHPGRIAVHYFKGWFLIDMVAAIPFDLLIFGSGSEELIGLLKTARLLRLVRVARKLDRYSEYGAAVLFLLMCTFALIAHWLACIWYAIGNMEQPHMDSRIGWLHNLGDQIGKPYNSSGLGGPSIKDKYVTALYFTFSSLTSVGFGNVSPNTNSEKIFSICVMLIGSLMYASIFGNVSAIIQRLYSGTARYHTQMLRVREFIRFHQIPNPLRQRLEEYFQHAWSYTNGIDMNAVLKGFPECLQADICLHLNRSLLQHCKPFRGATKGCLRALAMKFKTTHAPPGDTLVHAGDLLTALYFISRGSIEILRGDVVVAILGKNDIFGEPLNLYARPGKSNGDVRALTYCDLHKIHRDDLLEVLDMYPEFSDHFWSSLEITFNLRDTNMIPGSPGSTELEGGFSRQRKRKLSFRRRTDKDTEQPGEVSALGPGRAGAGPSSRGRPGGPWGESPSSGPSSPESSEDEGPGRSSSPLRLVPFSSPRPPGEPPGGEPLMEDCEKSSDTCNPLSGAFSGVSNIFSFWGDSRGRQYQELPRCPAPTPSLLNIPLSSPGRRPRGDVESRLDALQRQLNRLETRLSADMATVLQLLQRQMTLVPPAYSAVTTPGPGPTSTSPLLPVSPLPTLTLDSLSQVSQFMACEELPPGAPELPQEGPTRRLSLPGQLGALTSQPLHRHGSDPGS", "test": "primary screen, population patch clamp on CHO cells stably expressing hERG", "units": {"hERG current change (%, negative = inhibition) at 1uM": "%"}, "values": [{"smiles": "O=S(=O)(c1ccccc1OC(F)(F)F)N1CCN(c2ccnc3cc(Cl)ccc23)CC1", "hERG current change (%, negative = inhibition) at 1uM": 9.89}, {"smiles": "O=S(=O)(c1ccccc1)N1CCN(c2nnnn2-c2ccccc2)CC1", "hERG current change (%, negative = inhibition) at 1uM": 4.02}, {"smiles": "Cc1cc(=O)n2nc(N3CCC(C(=O)N4CCN(C)CC4)CC3)sc2n1", "hERG current change (%, negative = inhibition) at 1uM": 15.3}, {"smiles": "Cl.N=c1ccn(Cc2ccc(Cl)cc2)cc1", "hERG current change (%, negative = inhibition) at 1uM": 4.49}, {"smiles": "CSc1cccc(NC(=O)CC2Oc3ccccc3NC2=O)c1", "note": "(stereo not drawn)", "hERG current change (%, negative = inhibition) at 1uM": 7.99}, {"smiles": "CC(C)(C)C(=O)Nc1ccc(F)cc1[N+](=O)[O-]", "hERG current change (%, negative = inhibition) at 1uM": 7.33}, {"smiles": "CCCCNC(=O)Cn1c(=O)n(C)c2ccccc21", "hERG current change (%, negative = inhibition) at 1uM": 10.9}, {"smiles": "CCc1ccc(NC(=O)CSc2nnc(CNC(=O)c3cccs3)o2)cc1", "hERG current change (%, negative = inhibition) at 1uM": 8.18}, {"smiles": "Oc1cccc2ccc(Nc3ccccn3)nc12", "hERG current change (%, negative = inhibition) at 1uM": -16}, {"smiles": "COc1ccc(CC(=O)NNC(=O)c2ccncc2)cc1", "hERG current change (%, negative = inhibition) at 1uM": 10.6}, {"smiles": "CCCC(C(=O)NC1CCCC1)N(Cc1ccc(OC)cc1)C(=O)c1snc(C(N)=O)c1N", "note": "(stereo not drawn)", "hERG current change (%, negative = inhibition) at 1uM": 7.15}, {"smiles": "COc1ccc(-n2c(SCC(C)=O)nc3sc(C)c(C)c3c2=O)cc1", "hERG current change (%, negative = inhibition) at 1uM": 17.3}, {"smiles": "O=C(N1CCOCC1)N1CCC(c2nc(-c3ccc(S(=O)(=O)N4CCOCC4)cc3)no2)CC1", "hERG current change (%, negative = inhibition) at 1uM": 5.27}, {"smiles": "COC(=O)C(NC(C)=O)(Nc1nc2ccc(S(C)(=O)=O)cc2s1)C(F)(F)F", "note": "(stereo not drawn)", "hERG current change (%, negative = inhibition) at 1uM": 16}, {"smiles": "O=C(CSc1n[nH]c(-c2ccc(S(=O)(=O)NC3CCCCC3)cc2)n1)N1CCCC1", "hERG current change (%, negative = inhibition) at 1uM": -0.71}, {"smiles": "CCN=C1SC(CC(=O)NC2CCCCC2)C(=O)N1CC", "note": "(stereo not drawn)", "hERG current change (%, negative = inhibition) at 1uM": 5.5}, {"smiles": "CCC1=Nc2cc(C(=O)NCCN3CCCC3)ccc2Sc2ccc(C)cc21", "hERG current change (%, negative = inhibition) at 1uM": 7.13}, {"smiles": "CC(C)CN(C(=O)COC(=O)c1ccc(Br)o1)c1c(N)n(Cc2ccccc2)c(=O)[nH]c1=O", "hERG current change (%, negative = inhibition) at 1uM": 12}, {"smiles": "O=c1c2cc(NC(=S)N3CCCCC3)ccc2nc2n1CCCCC2", "hERG current change (%, negative = inhibition) at 1uM": -3.2}, {"smiles": "CC1CCN(C(=O)COc2ccc(S(=O)(=O)N3CCOCC3)cc2)CC1", "hERG current change (%, negative = inhibition) at 1uM": 4.27}, {"smiles": "Cc1ccc(C)c(Cn2c3ccccc3c3cnn(CC(=O)NCCN4CCOCC4)c(=O)c32)c1", "hERG current change (%, negative = inhibition) at 1uM": 2.36}, {"smiles": "CCC(c1nnnn1Cc1ccco1)N(Cc1cc2cc(OC)ccc2[nH]c1=O)C1CCCCC1", "note": "(stereo not drawn)", "hERG current change (%, negative = inhibition) at 1uM": 3.98}, {"smiles": "CC(=O)OC[C@H]1O[C@@H](Sc2cccc3cccnc23)[C@H](OC(C)=O)[C@@H](OC(C)=O)[C@@H]1OC(C)=O", "hERG current change (%, negative = inhibition) at 1uM": 4.36}, {"smiles": "COc1ccccc1CN1CC(C(=O)N(Cc2cnn(C)c2)C(C)C)CCC1=O", "note": "(stereo not drawn)", "hERG current change (%, negative = inhibition) at 1uM": 16.9}]}]}
